Reference: PubChem BioAssay AID488969 (Vanderbilt High Throughput Screening Facility, 2010)
Over roughly 110,000 compounds, “z-score” has its median near -0.1; the highest 2% begin near 2. This is one part of the list. Active and inactive are the calls of the source.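 The calls were made as follows: active = z-score in the third read window above 3 or below -3; inactive = the rest.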

Biological target: Metabotropic glutamate receptor 8 (Rattus norvegicus) (UniProt P70579)
Assay: mGluR8 Gi/Go-coupled signaling modulation – cell-based, rat, thallium flux, HTS, primary screen (AID 488969)
Settings: HEK293 rat mGluR8, GIRK (G protein-gated inwardly rectifying potassium channel) thallium flux, FluoZin2; at 10 µM; stronger effect = higher value; submaximal glutamate (EC20) added with thallium

Chain of UniProt P70579 (P70579 whole entry, looked up): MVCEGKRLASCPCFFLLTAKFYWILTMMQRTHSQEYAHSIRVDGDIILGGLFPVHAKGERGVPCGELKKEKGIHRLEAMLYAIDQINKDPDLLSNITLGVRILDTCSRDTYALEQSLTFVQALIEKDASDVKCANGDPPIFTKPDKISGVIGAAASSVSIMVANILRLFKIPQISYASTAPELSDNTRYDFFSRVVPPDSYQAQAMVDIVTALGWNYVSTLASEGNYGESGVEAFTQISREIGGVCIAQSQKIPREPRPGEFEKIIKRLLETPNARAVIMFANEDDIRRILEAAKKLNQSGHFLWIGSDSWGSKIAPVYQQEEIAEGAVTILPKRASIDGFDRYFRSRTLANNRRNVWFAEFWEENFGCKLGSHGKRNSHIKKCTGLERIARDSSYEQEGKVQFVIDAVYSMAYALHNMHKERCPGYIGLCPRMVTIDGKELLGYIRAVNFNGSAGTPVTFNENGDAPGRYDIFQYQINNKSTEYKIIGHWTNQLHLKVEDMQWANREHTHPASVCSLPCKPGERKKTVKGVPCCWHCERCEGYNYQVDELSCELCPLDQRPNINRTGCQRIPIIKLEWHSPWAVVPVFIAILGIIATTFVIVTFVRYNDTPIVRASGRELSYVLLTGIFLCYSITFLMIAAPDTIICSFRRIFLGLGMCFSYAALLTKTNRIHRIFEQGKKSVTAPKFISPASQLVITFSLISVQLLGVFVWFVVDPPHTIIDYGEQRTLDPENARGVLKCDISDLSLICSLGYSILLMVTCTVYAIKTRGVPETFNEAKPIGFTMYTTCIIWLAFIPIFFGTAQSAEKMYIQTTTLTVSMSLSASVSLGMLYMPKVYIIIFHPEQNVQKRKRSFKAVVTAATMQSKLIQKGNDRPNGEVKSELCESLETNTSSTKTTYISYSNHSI

SMILES	z-score
CCOC(=O)c1c(NC(=O)C2CCCO2)sc2c1CCC2 (stereo not given)	-0.878
Cc1onc(-c2ccccc2)c1C(=O)NC(C)C	-0.244
O=C(CSc1nnc(-c2c[nH]c3ccccc23)o1)N(Cc1ccccc1)c1ccc(F)cc1	-0.0763
COc1ccc(OC)c(Nc2cc(C(=O)NCCCN3CCOCC3)c3ccccc3n2)c1	-1.13
CCc1nc2sc3c(c2c(=O)n1NC(=O)CCl)CCCC3	-0.281
CCN(CCO)c1nc(SC)nc2c1sc1nc(-c3ccco3)c3c(c12)CCC3	-0.0729
CCn1cc(C(=O)Nc2ccc3c(c2)OCCO3)c2cc(OC)c(OC)cc2c1=O	-0.483
O=C(CCN1C(=O)/C(=C\c2cccs2)SC1=S)NC1=NCCS1	-0.557
O=C(COC(=O)c1cccnc1Nc1cccc(C(F)(F)F)c1)NCCN1C(=O)CSC1=O	-0.143
O=C(Cc1coc2ccc3ccccc3c12)Nc1nnc(C2CC2)s1	-0.082
COc1ccc(-c2nnc(SCC(=O)NCc3cccs3)n2C)cc1	-0.0999
CC1CCCCN1C(=O)CSc1nnc(-c2cccnc2)n1C1CCCCC1 (stereo not given)	0.109
O=C(O)CCc1ccc(-c2ccc(F)cc2)n1CC(=O)O	-0.104
Cc1nc2ccc(S(=O)(=O)N(C)CC(=O)NCc3ccc4c(c3)OCO4)cc2s1	0.73
N#Cc1c(N)n(CCOC(=O)c2cccc([N+](=O)[O-])c2)c2nc3ccccc3nc12	-0.616
CC1=C(C(=O)NCc2ccccc2)C(c2cc(Br)cc(Br)c2OC(C)C)NC(=O)N1 (stereo not given)	0.112
CCCC(=O)NC1=C(C#N)C2(CCCC2)Cc2ccccc21	0.0108
CCOc1ccc(CCNC(=O)c2cc3sccc3n2CC)cc1OCC	-1.07
COc1ccc2c(c1)C(c1ccccc1)=NNC(c1ccco1)=N2	0.179
COc1ccc(N2C(=O)CC(Nc3ccc(N4CCOCC4)cc3)C2=O)c(OC)c1 (stereo not given)	-0.0673
CCOC(=O)CSc1nnc(CSc2nc3ccccc3c(=O)[nH]2)n1-c1ccccc1	-0.56
C=CCN(CC=C)S(=O)(=O)c1ccc(NC(=S)NC(=O)/C=C/c2ccc(C)cc2)cc1	-0.0815
Cc1cc(NC(=O)c2cnn3cccnc23)n(-c2ccccc2)n1	-0.232
O=C(CSCc1ccc(Cl)cc1)Nc1ccc(S(=O)(=O)N2CCOCC2)cc1	-1.31
Cc1cccc(NC(=O)c2cccc(NS(=O)(=O)c3ccc(Cl)cc3)c2)c1	-0.115
C=CCn1c(O)c(CN2CCOCC2)c(C)c(C#N)c1=O	1.14
CCOC(=O)c1cc(-c2ccccc2)nc2c1c(C)nn2-c1ccccn1	0.111
COc1ccc(/C=N\NS(=O)(=O)c2ccc(Br)cc2)cc1COc1ccccc1[N+](=O)[O-]	0.824

SMILES	z-score
OCCNc1nc(Nc2ccccc2)nc(Nc2ccccc2)n1	-0.514
O=C(NNc1nc2ccccc2s1)C1CC1	0.333
CC(C)NC(=O)Cc1ccc(Br)cc1	0.103
CCOC(=O)c1ccc(NCc2ccc(N(C)C)cc2)cc1	0.158
CC(C)Oc1ccc(C(CC(=O)NCc2ccco2)c2ccccc2)cc1 (stereo not given)	-0.795
CCCCCCCCSc1nnc(-c2ccc(OC)cc2)o1	-0.194
O=C(COC(=O)CCc1nc2ccccc2s1)Nc1nc(-c2ccccc2)cs1	-0.225
Cn1cccc1/C=N/n1cnnc1	-0.0959
CCC(C)NC(=O)CSC1=Nc2ccccc2C2=NC(CC(=O)NCc3ccc(F)cc3)C(=O)N12 (stereo not given)	-0.906
Cn1nnnc1SCC(=O)NCc1cccs1	-0.0581
O=C(CSc1ccc2nnc(-c3ccccc3)n2n1)NCc1ccc2c(c1)OCO2	0.0575
COc1ccc(NC(=O)Nc2cc3oc4ccccc4c3cc2OC)cc1	0.008
CCc1nnc(NC(=O)CSc2nnc(-c3c[nH]c4ccccc34)n2CC)s1	active: 5.79
Cn1c(=O)[nH]c(=O)c2c1nc(N1CCOCC1)n2CCSc1ncccn1	0.419
COC(=O)C1CC(c2c(OC)cc(OC)cc2OC)=NO1 (stereo not given)	-0.0294
S=C(Nc1cccc(Cl)c1)NC1CCCCC1	0.0383
COc1ccc(OC)c(-c2csc(NC(=O)CSc3ccc([N+](=O)[O-])cc3)n2)c1	-0.149
O=C(O)CSCC(=O)Nc1cccc(C(F)(F)F)c1	-0.115
COc1ccc(NC(=O)CC2C(=O)OCC3CCCCN32)cc1Cl (stereo not given)	-0.0382
Cc1ccc(OCC(=O)N/N=C/c2cc([N+](=O)[O-])ccc2N2CCCCC2)cc1	0.028
Cc1[nH]c(C)c2c(=O)n(-c3ccccc3)ncc12	-0.309
C/C(=N\NC(=O)c1c(Cl)cnn1C)c1ccc(NC(=O)c2ccncc2)cc1	0.0454
O=S(=O)(NCc1ccco1)c1cccc2cccnc12	-0.0649
CCOC(=O)N1CCC(NC(=O)c2ccc(CS(=O)(=O)c3ccccc3C)o2)CC1	-0.297
CCN(CC)S(=O)(=O)c1cccc2cccnc12	-0.151
CC(=O)N1CSCC1C(=O)O (stereo not given)	1.62
Cc1ccc(Nc2ncnc3sc(C)c(C)c23)cc1C	0.147
